According to PMC3807529 (Biochemistry, 2013):

Target: T1, human parkin ubiquitin-like domain (residues 1-77) (human, UniProt O60260 1-77)
T1 sequence (looked up): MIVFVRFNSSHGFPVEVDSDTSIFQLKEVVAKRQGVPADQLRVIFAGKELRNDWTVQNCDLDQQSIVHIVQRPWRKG
Test: NMR titration

B1: ataxin-3 fragment containing all three UIM sequences ([…], UIM_123) (domain or fragment)
chain: not shown
  KD of each UIM site (model of three identical binding sites): 669 ± 62 µM
